Assay results from PMC4336329 (PLoS ONE, 2015).
Among all 310,000 compounds or so, about 2,200 (0.71%) showed an effect of 50% or more. The effect is printed as a negative number. The list shows a part of the results.

Biological target: human ether-à-go-go-related gene (hERG) potassium channel (human, UniProt Q12809)
Assay: primary screen, population patch clamp on CHO cells stably expressing hERG

Chain of human ether-à-go-go-related gene (hERG) potassium channel (Q12809 whole entry, looked up): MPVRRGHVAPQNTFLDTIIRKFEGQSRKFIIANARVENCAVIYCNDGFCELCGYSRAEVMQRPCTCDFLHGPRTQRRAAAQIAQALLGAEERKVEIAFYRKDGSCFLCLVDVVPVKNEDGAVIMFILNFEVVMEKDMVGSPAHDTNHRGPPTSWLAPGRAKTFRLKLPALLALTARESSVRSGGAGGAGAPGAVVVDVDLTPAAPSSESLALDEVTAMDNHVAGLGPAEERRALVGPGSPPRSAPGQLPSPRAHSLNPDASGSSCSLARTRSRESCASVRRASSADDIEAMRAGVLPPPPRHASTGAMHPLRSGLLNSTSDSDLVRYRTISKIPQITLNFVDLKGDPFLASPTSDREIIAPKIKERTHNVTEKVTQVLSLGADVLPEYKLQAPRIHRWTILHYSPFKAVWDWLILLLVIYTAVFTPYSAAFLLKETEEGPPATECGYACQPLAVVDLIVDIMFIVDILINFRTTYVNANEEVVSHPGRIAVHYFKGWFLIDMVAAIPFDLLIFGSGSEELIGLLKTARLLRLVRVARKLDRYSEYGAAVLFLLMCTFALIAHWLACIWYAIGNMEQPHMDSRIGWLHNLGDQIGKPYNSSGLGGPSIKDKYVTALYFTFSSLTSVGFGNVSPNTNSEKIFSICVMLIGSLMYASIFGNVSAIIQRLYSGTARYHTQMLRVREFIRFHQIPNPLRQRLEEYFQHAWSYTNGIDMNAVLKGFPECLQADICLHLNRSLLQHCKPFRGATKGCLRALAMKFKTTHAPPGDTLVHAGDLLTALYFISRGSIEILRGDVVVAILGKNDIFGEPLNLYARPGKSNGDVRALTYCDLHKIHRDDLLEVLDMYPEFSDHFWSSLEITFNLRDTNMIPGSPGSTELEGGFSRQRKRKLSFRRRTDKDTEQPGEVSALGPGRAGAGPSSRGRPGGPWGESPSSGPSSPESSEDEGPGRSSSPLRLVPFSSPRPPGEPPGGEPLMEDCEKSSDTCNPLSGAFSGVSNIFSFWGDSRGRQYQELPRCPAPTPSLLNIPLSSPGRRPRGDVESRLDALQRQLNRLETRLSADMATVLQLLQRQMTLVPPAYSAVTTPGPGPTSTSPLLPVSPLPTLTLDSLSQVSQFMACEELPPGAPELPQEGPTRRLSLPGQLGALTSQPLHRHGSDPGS

SMILES | hERG current change (%, negative = inhibition) at 1uM [%]
Cc1ccc(C2=NN(C(=O)CCC(=O)O)C(c3ccc4c(c3)OCO4)C2)cc1 (centres unmarked) | 6.31
COc1cccc(/C=N/NC(=O)CCn2c3ccccc3c3ccccc32)c1 | -7.19
CC12CCC(C(=O)N(CCCN3CCN(Cc4ccccc4)CC3)C1=O)C2(C)C.Cl (centres unmarked) | 2.96
COc1ccc(/C=C2\CCCC(C(=O)C(F)(F)F)=C2O)cc1OC | 5.34
COc1ccc(C(=O)Nc2ccc(C(=O)N3CCC(C)CC3)cc2)cc1OC | 13.8
CCCCCC(=O)N1CCN(S(=O)(=O)c2ccc3c(c2)OCCO3)CC1 | -31.2
O=C(/C=C/c1ccco1)N1CCN(S(=O)(=O)c2cccs2)CC1 | 9.56
N#C/C(=N\Nc1ccc([N+](=O)[O-])cc1)C(=N)N1CCOCC1 | -12.3
CN(C)c1ccc(C(=O)NCC(c2cccs2)N2CCOCC2)cc1[N+](=O)[O-] (centres unmarked) | 3.86
O=C(c1ccc(Br)cc1)N1CCC(C(=O)N2CCN(Cc3ccccc3)CC2)CC1 | -15.8
Fc1cccc(Cc2noc(CN3CCCCC3CCc3ccccn3)n2)c1 (centres unmarked) | 13.2
O=C(CN1CCOCC1)Nc1ncc(Cc2cccc(Cl)c2)s1 | -7.1
CC1(C)CC(NC(=O)c2ccccc2Cl)CC(C)(C)N1.Cl | 12.9
CCC(C(=O)Nc1cc(Cl)c(OC)cc1OC)c1ccccc1 (centres unmarked) | -2.68
O=C(CCCN1C(=O)c2cccnc2Oc2ccc(Cl)cc21)N1CCCCC1 | -0.408
C=CCSc1nc2c(cnn2-c2ccccc2)c(=O)n1N | 8.15
Fc1cccc(-n2c(-c3cccs3)nc3nc4ccccc4nc32)c1 | 8.2
COc1cccc(-c2ccc(SCC(=O)N3CCOCC3)nn2)c1 | 8.5
Cc1ccccc1C(=O)N1CCC(C(=O)NC2CCCC2)CC1 | 13.7

SMILES | hERG current change (%, negative = inhibition) at 1uM [%]
CC(=O)c1ccc(S(=O)(=O)N2CCN(CC(=O)NC(=O)NC3CCCCC3)CC2)cc1 | 7.69
COc1ccc(OC)c(-c2csc(NC(=O)COC(=O)C3CCC3)n2)c1 | 1.09
Cc1nc(C(=O)NC2CC2)sc1C1(C)CC(c2cccc([N+](=O)[O-])c2)=NO1 (centres unmarked) | -0.499
COc1ccc(S(=O)(=O)N2CCOC2CNC(=O)C(=O)NCCc2ccc(OC)c(OC)c2)cc1C (centres unmarked) | 12.4
CCc1cccc(NC(=O)Cn2c(-c3ccccc3)cc(C(C)=O)c2C)c1 | 11.4
CCCn1c(C(=O)c2ccccc2)nc2ccccc21 | -1.32
Cc1cc(C)n2nc(C(=O)OCC(=O)c3cc(C)n(C)c3C)nc2n1 | 12.7
Cc1ccc(NC(=O)c2ccc(Cl)cc2[N+](=O)[O-])nc1 | 10.5
O=C(/C=C/c1ccc(Cl)c([N+](=O)[O-])c1)Nc1cccc(NC(=O)c2ccco2)c1 | 4.12
CSc1ccccc1NC(=O)CN1CC(C)OC(C)C1 (centres unmarked) | 9.79
Cc1cc(O)c(C(C[N+](=O)[O-])c2ccc(Cl)cc2Cl)c(=O)o1 (centres unmarked) | 4.33
COc1ccc(NC(=O)c2c(NC(=O)CCC(=O)O)sc3c2CCCCC3)cc1 | 15.9
Cc1nn(C)c(C)c1NS(=O)(=O)c1cccc(Br)c1 | 12.5
CCOC(=O)C1=C(C)OC(N)=C(C#N)C12C(=O)N(C)c1ccccc12 (centres unmarked) | 16.9
Cc1ccc(C(CCNC(C)c2cccs2)c2ccco2)cc1 (centres unmarked) | -6.57
O=C(N/N=C/c1c(Cl)cccc1Cl)c1ccc(F)cc1 | -9.15
CC1(C)CC(=O)C=C(NNC(=O)c2ccccc2)C1 | 15.6
Cc1cccc(OCc2nnc(NC(=O)Cc3cccs3)s2)c1 | 9.25
CCC/C=N/NC(=O)c1ccc(F)cc1 | 8.66

SMILES | hERG current change (%, negative = inhibition) at 1uM [%]
CCCC(C)(COC(N)=O)COC(=O)NC(C)C (centres unmarked) | -6.24
Cc1ccc(S(=O)(=O)NCCc2ccccc2)cc1 | 9.1
CC(NC(=O)CC1SC(N)=NC1=O)c1ccccc1 (centres unmarked) | 0.396
CCn1nc(C)c(CNC(=O)C2CCC(=O)N(CCc3ccc(OC)cc3)C2)c1C (centres unmarked) | 10.7
CNC(=O)CSc1nnc(-c2ccc(S(=O)(=O)N3CCCC3)cc2)n1-c1cccc(C)c1C | 7.16
Cc1cc(=O)cc(C)n1-c1ccc(O)cc1 | 8.96
CN(C)S(=O)(=O)c1cccc(COC(=O)c2cc([N+](=O)[O-])ccc2N2CCOCC2)c1 | 9.2
CC(=O)c1sc(NC(=O)CCN2C(=O)c3ccccc3C2=O)nc1C | 16.6
Cc1cc(N/C=C/C(=O)c2ccc(Br)cc2)no1 | 0.889
CCOc1ccccc1-c1nc(CN2CCC(C(=O)N3CCOCC3)CC2)c(C)o1 | 5.93
O=C(CSc1ccccc1C(=O)O)Nc1cccc(C(=O)O)c1 | 9.03
O=C1C=C(N(CCO)CCO)C2(CCCCC2)O1 | 3.83
O=C(CCNS(=O)(=O)c1ccccc1)N1CCN(c2ccccc2F)CC1 | -12
Cc1ccc(C)c(NC(=S)NCCc2ccc(S(N)(=O)=O)cc2)c1 | 3.82
O=C(O)CC/C(=N\Nc1ccc(S(=O)(=O)N2CCOCC2)cc1[N+](=O)[O-])c1cccs1 | 10.1
OC1CCCN(Cc2cn(Cc3ccccc3)nc2-c2cc3ccccc3o2)C1 (centres unmarked) | -7.53
CC(C)(C)NC(=O)CCN(/N=C/c1ccccc1)C1=NS(=O)(=O)c2ccccc21 | 7.27
CC(NC(=O)c1ccc(CS(=O)(=O)c2ccc(Cl)cc2)o1)c1ccc2c(c1)OCCO2 (centres unmarked) | 2.86
